{"source": "PubChem BioAssay AID1240", "about": "(Sanford-Burnham Center for Chemical Genomics, 2008)", "note": "About 800 (1.6%) of roughly 50,000 compounds showed an effect of 50% or more. Some of the results follow."}
{"molecular_target": "Bcl-2-like protein 10 (Homo sapiens) (UniProt Q9HD36)", "sequence (Q9HD36 whole entry, looked up)": "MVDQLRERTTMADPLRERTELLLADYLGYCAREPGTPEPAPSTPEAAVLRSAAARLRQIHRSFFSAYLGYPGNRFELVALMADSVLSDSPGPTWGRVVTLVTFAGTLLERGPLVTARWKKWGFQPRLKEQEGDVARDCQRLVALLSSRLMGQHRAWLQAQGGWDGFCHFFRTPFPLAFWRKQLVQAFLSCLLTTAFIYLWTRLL", "assay": "TR3 peptide-Bcl-B binding displacers, biochemical primary FP assay, phenotype converters (AID 1240);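 further: 0% = Bcl-B with tracer peptide and DMSO and 100% = tracer peptide lacking Bcl-B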", "conditions": "GST-Bcl-B / FITC-TR3 peptide fluorescence polarization; stronger effect = higher value; compound at 3.75 mg/L", "units": {"displacement": "%"}}
{"smiles": "CC(NC(=O)CCN1CCOCC1)C1COc2ccccc2O1", "note": "(stereo not given)", "displacement": -3.5}
{"smiles": "CC(=O)Nc1cccc(N=Cc2ccccc2O)c1", "displacement": 11.5}
{"smiles": "COc1cc(Sc2ccccc2[N+](=O)[O-])ccc1N", "displacement": 10.1}
{"smiles": "O=C1C2C(C(=O)N1/N=C/c1ccc(Cl)cc1Cl)C1C=CC2C12CC2", "note": "(stereo not given)", "displacement": 4.5}
{"smiles": "CC12CC3CC(C1)CC(NC(=O)c1ccccn1)(C3)C2", "displacement": 2.7}
{"smiles": "Cc1ccc(C)c(NC(=O)/C=C/c2ccc3c(c2)OCO3)c1", "displacement": -12.8}
{"smiles": "N#CC1C(=O)NC(=S)C(C#N)C12CCC(c1ccccc1)CC2", "note": "(stereo not given)", "displacement": -23.5}
{"smiles": "O=C(O)CN1C(=O)/C(=C\\c2cc([N+](=O)[O-])cc(Br)c2O)SC1=S", "displacement": -73.9}
{"smiles": "COc1cccc(C2C(C(=O)Nc3ccccc3)=C(C)N=c3s/c(=C\\c4c[nH]c5ccccc45)c(=O)n32)c1", "note": "(stereo not given)", "displacement": 113}
{"smiles": "O=C(NC(=S)Nc1ccccc1[N+](=O)[O-])c1ccccc1Cl", "displacement": -14}
{"smiles": "COCCOC(=O)C1=C(C)NC(C)=C(C(=O)OCCOC)C1c1cn(-c2ccccc2)nc1-c1ccc(F)cc1", "displacement": 6.2}
{"smiles": "COc1ccc(C(=O)Nc2cccc(NC(=O)c3ccc(Cl)cc3Cl)c2)cc1", "displacement": 10.2}
{"smiles": "CCOc1ccccc1C(=O)Nc1ccc(Cl)cc1[N+](=O)[O-]", "displacement": 4.1}
{"smiles": "Cc1cc(/C=N/n2cnnc2)c(C)n1C", "displacement": 3.5}
{"smiles": "O=C(Nc1ccccc1O)c1ccc2c(c1)C(=O)N(c1cccc(C(=O)c3ccccc3)c1)C2=O", "displacement": 15}
{"smiles": "O=Cc1cn(-c2ccccc2)nc1-c1ccc(Cl)cc1", "displacement": 7.5}
{"smiles": "O=C1CC(N=CN2CCOCC2)=NN1c1ccccc1", "displacement": -7.9}
{"smiles": "COC(=O)C1=C(O)/C(=C/c2cc(C)n(-c3cc(Cl)ccc3Cl)c2C)N=C1C", "displacement": 22.3}
{"smiles": "COc1ccc(NC2=CC(=O)CC(c3ccco3)C2)c(OC)c1", "note": "(stereo not given)", "displacement": 1.9}
{"smiles": "O=C(NC(Nc1ccccc1)C(=O)c1cccs1)c1ccccc1", "note": "(stereo not given)", "displacement": 7.8}
{"smiles": "O=C1C(Cc2c[nH]c3ccccc23)NC(=S)N1c1ccccc1", "note": "(stereo not given)", "displacement": 13.7}
{"smiles": "CCOc1ccc(N2C(=O)CSC23C(=O)Nc2ccccc23)cc1", "note": "(stereo not given)", "displacement": 6.8}
{"smiles": "Cc1onc(-c2ccccc2)c1C(=O)Nc1ccc(I)cc1", "displacement": -0.6}
{"smiles": "COC(=O)C1=C(C)N(c2ccc(C)cc2)/C(=C\\c2ccc(OCC(N)=O)cc2)C1=O", "displacement": 11.7}
{"smiles": "COc1ccc2c(c1)CC/C2=N/OC(=O)c1ccc(OC)c(OC)c1", "displacement": 5.7}
{"smiles": "CN1C(=O)NC(=O)/C(=C\\c2cccc(O)c2)C1=O", "displacement": -6.7}
{"smiles": "Cc1ccc(/C(O)=C2\\C(=O)C(=O)N(CCCC(=O)O)C2c2cccc([N+](=O)[O-])c2)cc1", "note": "(stereo not given)", "displacement": -1}
{"smiles": "Cc1ccc(C(=O)Nc2nc3ccccc3n2CCN2CCCC2)cc1", "displacement": -2.7}
{"smiles": "O=C1NC(c2ccccc2Cl)Nc2sc3c(c21)CCCC3", "note": "(stereo not given)", "displacement": -0.9}
{"smiles": "Cc1ccc(NC(=S)Nc2ccc(F)cc2)cc1C", "displacement": -5.2}
